{"source": "PubChem BioAssay AID588855", "about": "(National Center for Advancing Translational Sciences (NCATS), 2011)", "note": "The campaign covered roughly 410,000 compounds. About 5,000 (1.2%) were called active. The inconclusive results got no clear call from the source; some entries with a clear call stand among them for comparison. Calls come from the whole dose curve; as a rule, active = well fitted inhibition curve with a large enough effect; inconclusive = small, poorly fitted or top-dose-only effect; inactive = no such curve, though single readings can be large or run the other way. Where the call is inconclusive, the potency comes from a doubtful curve fit.", "data": [{"experiment": "qHTS for Inhibitors of TGF-b; note: nearly all actives have a fitted effect of over 65% in size; note: potency is the fitted concentration of half-maximal effect; tags give direction and shape of the fitted curve; for activity, negative = inhibition: % is set by controls: 0 for no effect and ±100 for the full control effect", "conditions": "HepG2 CAGA-GFP TGF-b/SMAD3 reporter, GFP fluorescence, 18 h, TGF-beta stimulated, 500 pg/mL final; series mostly up to 46.1 µM; activity, negative = inhibition: at the top concentration", "summary_of_the_method": "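TGF-beta reporter screen: HEPG2 CAGA-GFP, 1% FBS, 500 pg/mL TGF-beta final, 18 h; per-cell GFP summed per well; curves fitted and categorized by class.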", "values": [{"molecule": "CCOC(=O)C(O)(c1ccc(NC(=O)Oc2ccccc2)cc1)C(F)(F)F", "note": "(stereo not drawn)", "activity, negative = inhibition": "inactive: -12.2%"}, {"molecule": "COC(=O)C1=C(c2ccccc2OCc2ccccc2)C[C@@H]2CC[C@H]1N2C(=O)NCCOc1ccccc1Cl", "Potency": "inconclusive: 28.2 µM [inhibitor, partial curve, poor fit]"}, {"molecule": "CN1C(=O)/C(=C/c2ccc(Cl)s2)C(=O)NC1=S", "activity, negative = inhibition": "inactive: -14.5%"}, {"molecule": "CC[n+]1c(/C=C/N(C)c2ccccc2)sc2ccc(Cl)cc21", "Potency": "inconclusive: 12.6 µM [inhibitor, single point]"}, {"molecule": "COC(=O)C1=C(c2ccc(Cl)c(C(F)(F)F)c2)C[C@@H]2CC[C@H]1N2C(=O)NCc1cc(C)oc1C(F)(F)F", "Potency": "inconclusive: 35.5 µM [inhibitor, single point]"}, {"molecule": "CCOC(=O)c1ccc(NC(=O)Nc2cc3c(cc2N2CCCCC2)n(CC)c(=O)n3CC)cc1", "Potency": "inconclusive: 7.94 µM [inhibitor, partial curve, poor fit]"}, {"molecule": "COc1ccc(N2C(=O)NC(=O)C(CCc3ccncc3)(CCc3ccncc3)C2=O)cc1", "activity, negative = inhibition": "inactive: -2.27%"}, {"molecule": "CCCOC(=O)c1ccc(-[n+]2c(-c3ccccc3)cc(-c3ccccc3)cc2-c2ccccc2)cc1", "Potency": "inconclusive: 15.8 µM [inhibitor, partial curve, poor fit]"}, {"molecule": "COc1ccc2c(c1)NP(=S)(c1ccccc1)N2", "note": "(stereo not drawn)", "activity, negative = inhibition": "inactive: 0%"}, {"molecule": "CC12CCC(O)CC1CCC1C2CCC2(C)C(C3=CC(=O)OC3)CCC12O", "note": "(stereo not drawn)", "Potency": "active: 3.98 µM"}, {"molecule": "COc1ccc(CNC(=O)C2CCN(C(=O)c3cnn(-c4ccccc4)c3-n3cccc3)CC2)cc1", "Potency": "inconclusive: 11.2 µM [inhibitor, partial curve]"}, {"molecule": "NC(=O)c1c(Br)n(C2OC(CO)C(O)C2O)c2ncnc(N)c12", "note": "(stereo not drawn)", "Potency": "active: 1.41 µM"}, {"molecule": "CC(=O)C1CCC2C3C(N4CC4)CC4=CC(=O)CCC4(C)C3CCC12C", "note": "(stereo not drawn)", "activity, negative = inhibition": "inactive: -5.06%"}, {"molecule": "CC(=O)O[C@H]1C[C@@H]2OC3C=C(C)CCC3(C)[C@@]1(C)[C@@]21CO1", "note": "(stereo partly drawn)", "Potency": "active: 1.26 µM"}, {"molecule": "Cc1oc(-c2ccc(Cl)cc2)nc1CN1C(=O)CN=C(c2ccccc2)c2cc(Cl)ccc21", "activity, negative = inhibition": "inactive: 2.8%"}, {"molecule": "Cc1cccc(-n2c(-c3cccs3)nc3ccccc3c2=O)c1", "Potency": "inconclusive: 0.112 µM [inhibitor, full curve, poor fit]"}, {"molecule": "CC(=O)O[C@H]1[C@H]2O[C@]23[C@@H]2CC[C@]4(O)C[C@@H](O)CC[C@]4(C)C2CC[C@]3(C)[C@H]1c1ccc(=O)oc1", "note": "(stereo partly drawn)", "Potency": "active: 3.55 µM"}, {"molecule": "CCCCC(=O)N/N=C/c1c(O)n(-c2cccc3ccccc23)c(=O)[nH]c1=O", "activity, negative = inhibition": "inactive: -15.3%"}, {"molecule": "Cc1ccnc(NC(=O)CCCc2ccc(N(CCCl)CCCl)cc2)n1", "activity, negative = inhibition": "inactive: 4.59%"}, {"molecule": "CC(=O)OC1C2(CC3N4C(=O)C5(CO)SSC4(CC31O)C(=O)N5C)OC(C)C(C)(C)C2=O", "note": "(stereo not drawn)", "Potency": "active: 0.794 µM"}, {"molecule": "COc1ccc(-n2c(/C=C/c3ccc(O)c(O)c3)nc3ccccc3c2=O)cc1", "Potency": "inconclusive: 35.5 µM [inhibitor, single point]"}, {"molecule": "COc1cc(Cl)ccc1Nc1ncc(C(=O)N2CCN(c3ccccc3OC)CC2)c2ccccc12", "Potency": "inconclusive: 8.91 µM [inhibitor, single point]"}, {"molecule": "O=C(NC1CCCCCC1)c1ccc[nH]c1=S", "Potency": "inconclusive: 35.5 µM [inhibitor, single point]"}, {"molecule": "COC(=O)C1=C(c2cc3ccccc3s2)C[C@@H]2CC[C@H]1N2C(=O)NCc1ccc(C(F)(F)F)cc1", "Potency": "inconclusive: 35.5 µM [inhibitor, single point]"}, {"molecule": "NC(=O)c1cc([N+](=O)[O-])cc([N+](=O)[O-])c1", "activity, negative = inhibition": "inactive: -1.36%"}, {"molecule": "O=c1[nH]c2ccccc2n1C1CCN(C(CCc2ccccc2)c2nnnn2Cc2ccccc2)CC1", "note": "(stereo not drawn)", "Potency": "inconclusive: 35.5 µM [inhibitor, single point]"}, {"molecule": "CNCC(O)c1cc(OCc2ccccc2)c(OCc2ccccc2)cc1F", "note": "(stereo not drawn)", "Potency": "inconclusive: 35.5 µM [inhibitor, single point]"}, {"molecule": "CCOC(=O)c1nc2ccccc2c(=O)n1-c1ccc(C)cc1", "Potency": "inconclusive: 0.794 µM [inhibitor, full curve, poor fit]"}, {"molecule": "Nc1ccc2ccc3cccc[n+]3c2c1", "activity, negative = inhibition": "inactive: 72.6%"}, {"molecule": "Cc1ccc(C2(O)CCN3CCCCC32)cc1", "note": "(stereo not drawn)", "activity, negative = inhibition": "inactive: -0.821%"}, {"molecule": "COCCNC(=O)N1[C@H]2CC[C@@H]1C(C(=O)OC)=C(c1ccc(-c3ccccc3)c(F)c1)C2", "Potency": "inconclusive: 6.31 µM [inhibitor, full curve, poor fit]"}, {"molecule": "CCN(CC)CCCNC(=O)c1c(O)c2ccccc2n(Cc2ccccc2)c1=O", "Potency": "inconclusive: 22.4 µM [inhibitor, single point]"}, {"molecule": "O=C1NC(=O)C(CCc2ccncc2)(CCc2ccncc2)C(=O)N1Cc1ccc(F)cc1", "activity, negative = inhibition": "inactive: -12%"}, {"molecule": "C#CCN(C)C(C)Cc1ccccc1", "note": "(stereo not drawn)", "activity, negative = inhibition": "inactive: 3.32%"}, {"molecule": "COc1ccc(OC)c(N2C(=O)NC(=O)/C(=C/c3ccc([N+](=O)[O-])s3)C2=O)c1", "Potency": "inconclusive: 6.31 µM [inhibitor, single point]"}, {"molecule": "Cc1ccc(OP(=O)(Nc2cccc(C)c2)Oc2ccc(C)cc2)cc1", "Potency": "inconclusive: 28.2 µM [inhibitor, single point]"}, {"molecule": "CCC(=NCc1cc(OC)cc(OC)c1)c1c(O)n(C2CCCCC2)c(=O)[nH]c1=O", "Potency": "inconclusive: 22.4 µM [inhibitor, single point]"}, {"molecule": "O=C(CSc1nc2ccccc2c(=O)n1-c1ccc(Cl)c(Cl)c1)Nc1ccc2c(c1)CCC2", "Potency": "inconclusive: 6.31 µM [inhibitor, full curve, poor fit]"}, {"molecule": "CCOC(=O)c1c(N)n(CCCOC(=O)c2ccco2)c2nc3ccccc3nc12", "Potency": "active: 2.82 µM"}, {"molecule": "Cc1c(C(=O)O)cc(-c2ccccc2)n1Cc1ccccc1", "activity, negative = inhibition": "inactive: 1.61%"}, {"molecule": "N#Cc1cccc(NC(=O)CSc2nc3c(cc2C#N)N2CCC3CC2)c1", "Potency": "inconclusive: 0.398 µM [inhibitor, partial curve, poor fit]"}, {"molecule": "COC(=O)C1=C(c2ccc3ccccc3c2)C[C@@H]2CC[C@H]1N2C(=O)N1CCOCC1", "Potency": "active: 12.6 µM"}, {"molecule": "CSc1ccccc1C(=O)C1CCCN(Cc2ccncc2)C1", "note": "(stereo not drawn)", "activity, negative = inhibition": "inactive: -6.9%"}, {"molecule": "Cc1nc2cc(-c3ccc(Cl)cc3)nn2c(C)c1CCC(=O)N1CCC2(CC1)OCCO2", "activity, negative = inhibition": "inactive: -4.17%"}, {"molecule": "Cc1cc(C)cc(NC(=O)CCNC(=O)N2C[C@H]3C[C@@H](C2)c2cccc(=O)n2C3)c1", "Potency": "inconclusive: 0.891 µM [inhibitor, full curve, poor fit]"}, {"molecule": "C[C@H]1C[C@@H](C)C(=O)[C@@H]([C@H](O)CC2CC(=O)NC(=O)C2)C1", "Potency": "active: 0.708 µM"}, {"molecule": "CN1C(C(=O)NCc2cccc(C(F)(F)F)c2)CC2Cn3c(nc4cc5ccccc5cc43)C21", "note": "(stereo not drawn)", "Potency": "inconclusive: 0.631 µM [inhibitor, full curve, poor fit]"}, {"molecule": "CC(Oc1ccc(Br)cc1)C(=O)N(Cc1nc(-c2ccccc2)no1)C(C)C", "note": "(stereo not drawn)", "Potency": "inconclusive: 17.8 µM [inhibitor, partial curve, poor fit]"}, {"molecule": "COC(=O)C1=C(c2ccc(-c3ccccc3)c(F)c2)C[C@@H]2CC[C@H]1N2C(=O)NCc1cc(C)oc1C(F)(F)F", "Potency": "active: 1.58 µM"}, {"molecule": "Nc1c(C(=O)NCc2ccco2)c2nc3ccccc3nc2n1CCN1CCOCC1", "activity, negative = inhibition": "inactive: -14.6%"}, {"molecule": "O=c1c2ccccc2nc(/C=C/c2ccc(F)cc2)n1-c1ccccc1O", "Potency": "active: 10 µM"}, {"molecule": "COc1ccc(S(=O)(=O)N2c3ccc(F)cc3CCC2C)cc1", "note": "(stereo not drawn)", "Potency": "active: 6.31 µM"}, {"molecule": "CCCC(C)C1C(C#N)=C(N)Oc2c1c(=O)oc1ccccc21", "note": "(stereo not drawn)", "Potency": "inconclusive: 22.4 µM [inhibitor, single point]"}, {"molecule": "O=C(O)CSCC(=O)N(Cc1ccccc1)c1nc(-c2ccccc2)c(-c2ccccc2)s1", "Potency": "inconclusive: 14.1 µM [inhibitor, single point]"}, {"molecule": "CCOC(=O)C1(CCc2ccccc2)CCN(Cc2csc(C(C)=O)c2)CC1", "activity, negative = inhibition": "inactive: -24.7%"}, {"molecule": "CN1C(=O)C(=Cc2ccccc2OCc2ccccc2Cl)C(=O)N(C)C1=O", "activity, negative = inhibition": "inactive: -6.57%"}, {"molecule": "Cc1ccccc1-n1c(/C=C/c2ccc(O)cc2)nc2ccccc2c1=O", "Potency": "inconclusive: 22.4 µM [inhibitor, single point]"}, {"molecule": "Cc1cc(OC(=O)c2ccco2)c2c3c(c(=O)oc2c1)CCCC3", "Potency": "inconclusive: 35.5 µM [inhibitor, single point]"}, {"molecule": "COc1ccc(C(c2nnnn2Cc2ccccc2)N2CCC3(CC2)C(=O)NCN3c2ccccc2)cc1", "note": "(stereo not drawn)", "Potency": "active: 11.2 µM"}, {"molecule": "COC(=O)C1=C(c2cc3ccccc3s2)C[C@@H]2CC[C@H]1N2C(=O)NC1CC1", "activity, negative = inhibition": "inactive: -26.4%"}, {"molecule": "COC(=O)C1=C(c2ccc(OC(F)(F)F)cc2)C[C@@H]2CC[C@H]1N2C(=O)N1CCC(C)CC1", "Potency": "active: 6.31 µM"}, {"molecule": "COc1cc2c(c(OC)c1O)-c1ccc(OC)c(=O)cc1C(NC(=O)C(F)(F)F)CC2", "note": "(stereo not drawn)", "Potency": "inconclusive: 0.316 µM [inhibitor, full curve, poor fit]"}, {"molecule": "O=C(NC1CCCCC1)Oc1cc2oc(=O)sc2cc1Cl", "Potency": "inconclusive: 35.5 µM [inhibitor, single point]"}, {"molecule": "O=C1NC2C(=CC(O)C(O)C2O)c2cc3c(cc21)OCO3", "note": "(stereo not drawn)", "Potency": "inconclusive: 0.355 µM [inhibitor, full curve, poor fit]"}, {"molecule": "NC(Cc1ccc(Cl)cc1)c1csc(Nc2ncccn2)n1", "note": "(stereo not drawn)", "Potency": "inconclusive: 7.08 µM [inhibitor, partial curve, poor fit]"}, {"molecule": "CCOC(=O)c1ccc(NC(=O)c2cccn(Cc3ccc(C)cc3)c2=O)cc1", "Potency": "inconclusive: 0.316 µM [inhibitor, full curve, poor fit]"}, {"molecule": "O=C(Nc1cccc(Cl)c1)OC1CN2CCC1CC2", "note": "(stereo not drawn)", "Potency": "inconclusive: 4.47 µM [inhibitor, partial curve, poor fit]"}, {"molecule": "COCCCNC(=S)NCCCNc1nc2cc(C)cc(C)c2cc1C#N", "Potency": "inconclusive: 10 µM [inhibitor, partial curve, poor fit]"}]}]}
